This is an account of results in ChEMBL document CHEMBL4888484, “Replenishing the malaria drug discovery pipeline: Screening and hit evaluation of the MMV Hit Generation Library 1 (HGL1) against asexual blood stage Plasmodium falciparum ,using a nano luciferase reporter read-out” (2022).

Screen size: about 150,000 compounds; about 540 (0.36%) showed an effect of 50% or more. The list shows a part of the results.

In this assay the test system is Plasmodium falciparum. Put plainly: Primary screen in NF54 nanoGlo assay, in single point, at 2uM, 72h; a lower Z score goes with more inhibition. The settings on record: timepoint 72 hour. It is filed as functional, Erythrocyte.
As a reminder, the % Inhibition is the change of the read-out against control, counted positive when it falls. In the case of `CCOC(=O)C1CCN(C(=O)c2cn3c(n2)CC[C@H](c2cc(C(F)(F)F)cc(C(F)(F)F)c2)C3)CC1`, the “% Inhibition” value was -6% and the Z score is given as 0.97.
For `COc1ncc(NC(=O)c2ccco2)c(N2CCCC2)n1` the same measures were 12% and -2.18.
The matching figures for `O=C(CN1C(=O)NC2(CCCC2)C1=O)N1CCO[C@H](c2ccccc2)C1`: -9% and 1.24.
As for `COC(=O)CNc1cccc(C(N)=O)c1C`, the “% Inhibition” value is -1% and the Z score turned out to be 0.17.
Regarding `COc1cccc(OC)c1C(=O)N[C@@H](C)c1nnc(C)o1`, the “% Inhibition” value is given as -2% and the Z score was 0.32.
Consider `Cc1nc(N2CCN(C(=O)c3ccco3)CC2)c2c(C)nn(-c3ccccc3C)c2n1`, for which the “% Inhibition” value is -21% and the Z score came to 2.26.
Regarding `CC(=O)N1C(=O)COC[C@@H]1[C@H](O)c1ccc(NC(=O)C2CCC2)cc1`, the “% Inhibition” value is listed as -9% and the Z score is 1.62.
Regarding `C1CC(c2nc(C3(CC4CC4)CCN(C4CCOCC4)CC3)no2)CCO1`, the “% Inhibition” value is -9% and the Z score was determined as 1.25.
For `Cc1csc(-c2nccn2-c2ccc3cn[nH]c3c2)n1` the same measures were 7% and -0.66.
With `O=C(Cc1ccc(Cl)cc1)N1CCC([C@H]2CCNC2)CC1`, the “% Inhibition” value came to 2% and the Z score was -0.28.
For `CCN(CC)c1onc(-c2ccccc2)c1CN(CCN(C)C)C(=O)c1ccccc1` the same measures were 0% and 0.02.
The matching figures for `CC(C)[C@@](C)(C#N)NC(=O)CNc1ccc(F)c(F)c1F`: -6% and 0.75.
On to `CCOC(=O)c1ccc(NC(=O)[C@H](C)n2nc(-c3ccccc3)c3cc(Cl)ccc32)cc1`, for which the “% Inhibition” value is given as 1% and the Z score is reported as -0.24.
The matching figures for `O=C(CCCn1cncn1)N1CCN(c2ccc3cn[nH]c3c2)C(=O)C1`: 0% and 0.02.
As for `C[C@H]1COc2ccc(CN3CCN(C)CC3)cc2CN1C(=O)CCCc1ccccc1`, the “% Inhibition” value was -6% and the Z score is 0.56.
For `O=S(=O)(c1cccnc1)N1CC2(CC2)c2ccccc21` the same measures were 0% and 0.01.
As for `CC(=O)c1ccc(N2CCN(C(=O)NC3CC3)CC2)cc1`, the “% Inhibition” value was 28% and the Z score is given as -3.15.
The matching figures for `COc1ccccc1N(CCC(N)=O)C(=O)CN1CCC[C@H]1c1nnc2ccccn12`: 13% and -2.49.
`Oc1ncnc2nc(-c3ccccc3)cnc12`: the “% Inhibition” value was 9% and the Z score was -1.2.
The matching figures for `Cc1ccccc1S(=O)(=O)Nc1ccc(N2CCCCCC2)c(C(=O)O)c1`: -15% and 1.49.
For `CC(C)CC1(C(=O)N(C)Cc2nnc3n2CCN(C)C3=O)CCCC1`, the “% Inhibition” value was -9% and the Z score worked out at 0.72.
For `COC1(CNC(=O)Nc2nc(Cc3ccccc3)cs2)CCOCC1` the same measures were 7% and -1.01.
Turning to `CCc1cc(N2CCN(C3CCN(c4ccc(C)cc4)CC3)CC2)ncn1`, the “% Inhibition” value is recorded as -26% and the Z score is listed as 2.59.
Take `CCN1CC(=O)N[C@H]2CN(C(=O)c3cnn(CC)c3C)CC[C@@H]2OCc2cccc(c2)Oc2cc(OC(C)C)cc(c2)C1=O`: the “% Inhibition” value is recorded as -5% and the Z score is listed as 0.73.
For `CCn1c(N)c2c(=O)n(CC)c(-c3ccc(C)cc3)cc2c(C#N)c1=O` the same measures were -17% and 1.95.
The matching figures for `Cn1cccc1[C@@H](O)CCNC(=O)C1CCCCC1`: 0% and -0.03.
As for `COc1cccc(CNC(=O)CON=C(N)Cc2ccccc2)c1`, the “% Inhibition” value is on record as -4% and the Z score was found to be 0.49.
The matching figures for `Cc1ccc(C(=O)N2CCC3(CCNC(=O)CC3)CC2)n1C(F)F`: 2% and -0.26.
For `Cc1n[nH]c(=O)c(C(=O)Nc2cccc(Cl)c2)c1C` the same measures were -6% and 0.77.
Take `O=C(NCC[C@@H](CCO)c1ccsc1)c1cccs1`: the “% Inhibition” value was found to be 8% and the Z score is listed as -1.15.
On to `Cc1csc(C2(NS(=O)(=O)CC34CCC(CC3)C4)CCC2)n1`, for which the “% Inhibition” value is listed as -9% and the Z score was 1.7.
The matching figures for `CN(CCc1cnn(C)c1)[C@@H](C(=O)O)c1cccc2c1OCC2`: -10% and 1.67.
For `O=C(NCCc1nccn1Cc1ccccc1)c1cc2c(F)cccc2s1` the same measures were -34% and 4.03.
For `Cc1nn(-c2ccccc2)c2nc(N3CCC[C@H](C(=O)NCc4ccc(F)cc4)C3)sc12` the same measures were -13% and 1.74.
As to `O=C(CC[C@H]1CCOC1)N(CC(F)F)c1ccc(F)cc1`, the “% Inhibition” value is recorded as -2% and the Z score worked out at 0.19.
The matching figures for `Nc1[nH]nc(C(=O)NC2(C(=O)O)CCCC2)c1Cl`: -28% and 2.44.
The matching figures for `CCO[C@H]1CCN(C(=O)Nc2cccc3c2OCC3)C1`: 1% and -0.2.
Consider `Cc1c(C(=O)Nc2ccccc2C(=O)N2CCCCC2)oc2ccccc12`, for which the “% Inhibition” value is -11% and the Z score was found to be 1.73.
For `CCOc1nnc(CN2CCC[C@H](Cc3nc(C)no3)C2)s1` the same measures were 1% and -0.12.
The matching figures for `CC(C)C[C@@](C)(CC(=O)O)C(=O)N1CC2CC1(C)C2`: -6% and 0.76.
With `COC(=O)c1c(O)ccn1Cc1ccccc1`, the “% Inhibition” value is on record as 30% and the Z score is -3.83.
